# Earlier results in patent US20060057198A1, “Drug delivery from embolic agents” (BIOCOMPATIBLES UK LIMITED, priority 2003, published 2006).
# Key:
# [1] = system: women with menorrhagia; conditions: women with uterine fibroids and factor VIII deficiency, 1200 mg/day; cited from earlier work
# [2] = system: pregnant women with painful uterine leiomyomas; conditions: short courses; cited from earlier work
# [3] = system: COX-2/COX-1; conditions: 0 = equal potency; above 0 more selective to COX-1, below 0 more selective to COX-2; cited from earlier work
# [4] = intra-arterial; cited from earlier work
compound,measurement,setting,value
CC(C)Cc1ccc(C(C)C(=O)O)cc1 (stereo not shown) [Ibuprofen],blood loss,[1],no effect
same,pain,[2],successful in reducing pain
O=C(c1ccccc1)c1ccc2n1CCC2C(=O)O (stereo not shown) [Ketorolac],Log [IC80 ratio WHMA COX-2/COX-1)],[3],2 to 3
CCN(CC)CC(=O)Nc1c(C)cccc1C [lidocaine],spasm,[4],causes a large amount of spasm
